Consider 40 sequences from the supplement of paper PMC10338343.

± gives the standard deviation. This is a selection; strong and weak results do not stand in their true shares. Some results are limits rather than exact numbers.
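Note: 1 nM active piRISC with 0.1 nM target library at 33 °C single turnover.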

This test deals with MIWI (PIWIL1) piRISC loaded with piRNA #1 (30 nt). Put plainly: pre-steady-state target cleavage rate (min^-1); MIWI and MILI are mouse PIWI proteins and EfPiwi is from a freshwater sponge; tags in brackets are library labels; higher = faster piRNA-guided slicing of the target. The conditions noted are these: guide: piRNA #1 5'p-UGAGGUAGUAGGUUGUAUAGUAUCCAGAGG; auxiliary factor: 500 nM mouse GTSF1. The essentials: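 A burst-and-steady-state fit was used to obtain the pre-steady-state cleavage rate. The input data were sequencing reads of uncleaved targets, normalised to depth and to weakly complementary targets, from a […] transcribed, DNA-blocked target RNA library mixed with 1 nM active affinity-purified piRISC holding one synthetic guide, with or without 500 nM GTSF1 partner protein, in HEPES–potassium acetate buffer at 33 °C for 0–8 or 0–960 min. Three trials were pooled and k3 was capped at 0.0001 min^-1.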
In the case of GCACUGGAUAGUAUACAACCUACUACCUCA, the “pre-steady-state target cleavage rate” value was found to be 0.771 ± 0.058.

Consider GCUCUGGAUACUAUACAUGCUACUACCUCA, for which the “pre-steady-state target cleavage rate” value came out at 0.929 ± 0.054.

Consider GGAGACCUAACUAUUCAACCUACUACCUCA, for which the “pre-steady-state target cleavage rate” value is 0.665 ± 0.063.

As to GGAGACCUUAGAAUACAACCUACUACCUCA, the “pre-steady-state target cleavage rate” value was 0.00641 ± 0.0034.

For the sequence GGAGACCUAUGAUAUCAACCUUCUUCCUCA, the “pre-steady-state target cleavage rate” value is less than 0.0001.

For the sequence GGACUGGAAUGUAUACAACCUACUACCUCA, the “pre-steady-state target cleavage rate” value turned out to be 0.388 ± 0.063.

Regarding GGAGACCUAUCUAUACAACCUUCUUCCUCA, the “pre-steady-state target cleavage rate” value is 0.0147 ± 0.0041.

On to GGACUGGAUACUAUACAACCUACAUGCUCA, for which the “pre-steady-state target cleavage rate” value amounted to 0.00488 ± 0.0022.

As for GGAGAGGAUACUAUACAAGGAACUACCUCA, the “pre-steady-state target cleavage rate” value was 0.00447 ± 0.0029.

As for GGUCUGGAUUCUAUACAACCUACUACGUCA, the “pre-steady-state target cleavage rate” value amounted to 0.667 ± 0.052.

With “GGAGACCUAUGUAUACAACCUACUACCUCA [g2:g19:cont:t1A]”, the “pre-steady-state target cleavage rate” value is 0.373 ± 0.05.

Regarding GGAGACCUUUCUAUACAUCCUACUACCUCA, the “pre-steady-state target cleavage rate” value amounted to 0.332 ± 0.029.

As for GGAGAGGAUACUAUAGAACCUUCUACCUCA, the “pre-steady-state target cleavage rate” value is 0.104 ± 0.018.

On to GGAGUGGAUUACUAUACAACCUACUACCUCA, for which the “pre-steady-state target cleavage rate” value was determined as 1.55 ± 0.1.

On to GGAGACCUAAGUAUUCAACCUACUACCUCA, for which the “pre-steady-state target cleavage rate” value amounted to 0.00289 ± 0.0023.

Take GCUCUCGAUACUAUACAUCCUACUACCUCA: the “pre-steady-state target cleavage rate” value is 1.72 ± 0.09.

With GGACUGGAUACUAUACAACCUACUACCACA, the “pre-steady-state target cleavage rate” value turned out to be 0.55 ± 0.056.

As to GGAGUGGAAACUAUACAACGUACUACCUCA, the “pre-steady-state target cleavage rate” value was determined as 0.673 ± 0.037.

For the sequence GGUCUGGAUACUAUACAACCUACUAGCUCA, the “pre-steady-state target cleavage rate” value came to 0.136 ± 0.029.

As to CCUCUGGAUACUUUACAACCUUCUACCUCA, the “pre-steady-state target cleavage rate” value is 0.66 ± 0.035.

With GGAGUGGAUAGUAUACAACCUACUACCACA, the “pre-steady-state target cleavage rate” value turned out to be 0.0767 ± 0.022.

For the sequence GGAGACCAUACUAUACAACCUACUAGCCUCA, the “pre-steady-state target cleavage rate” value was 0.898 ± 0.071.

In the case of GCUCUGGAUACUAUACAACCAACUAGCUCA, the “pre-steady-state target cleavage rate” value amounted to 0.116 ± 0.018.

Regarding GGUCUGGAUAGUAUACAACCUACAACCUCA, the “pre-steady-state target cleavage rate” value turned out to be 0.499 ± 0.046.

In the case of GGAGACCUAUGUAUAGAAGCUACUACCUCA, the “pre-steady-state target cleavage rate” value stood at 0.00424 ± 0.0013.

Regarding GGAGACGAUACAAUACAACCUAGUACCUCA, the “pre-steady-state target cleavage rate” value is 0.3 ± 0.036.

GCUCUGGAUACUAUACAACCUACUACCAGA: the “pre-steady-state target cleavage rate” value worked out at 0.653 ± 0.065.

As for GGAGACCUAACUAUACAACCUAGUACCACA, the “pre-steady-state target cleavage rate” value came out at 0.226 ± 0.055.

For GGAGACCUAACUAUAAAACCUACUACCUCA, the “pre-steady-state target cleavage rate” value is 0.344 ± 0.045.

As to GGUCUGGAUUCUAAACAACCUACUACCUCA, the “pre-steady-state target cleavage rate” value was determined as 1.23 ± 0.071.

In the case of GGAGUGGAUACAAUACAACCUACUACGUCA, the “pre-steady-state target cleavage rate” value was 0.298 ± 0.025.

As to GGACUGGAUACAUAUACAACCUACUACCUCA, the “pre-steady-state target cleavage rate” value was determined as 1.45 ± 0.12.

For the sequence GGUCUGCAUACUAAACAACCUACUACCUCA, the “pre-steady-state target cleavage rate” value worked out at 1.56 ± 0.12.

GGUCAGGAUACUAUACAACGUACUACCUCA: the “pre-steady-state target cleavage rate” value was found to be 0.729 ± 0.043.

For GGAGUGGAUACUAUACAACCUACUACUCUCA, the “pre-steady-state target cleavage rate” value is 0.854 ± 0.053.

Consider GGACUGGAUACUUUACUACCUACUACCUCA, for which the “pre-steady-state target cleavage rate” value stood at 1.01 ± 0.11.

Regarding CGUCUGGAUAGUAUACAACCUACUACCUCA, the “pre-steady-state target cleavage rate” value is 0.381 ± 0.044.

GGAGACCAGUACUAUACAACCUACUACCUCA: the “pre-steady-state target cleavage rate” value was determined as 1.45 ± 0.079.

In the case of GGAGUGGAUACUAUACAACCUACUACGAGA, the “pre-steady-state target cleavage rate” value was found to be 0.00866 ± 0.0068.

Regarding GGAGACCUUACAUAUACAACCUACUACCUCA, the “pre-steady-state target cleavage rate” value was 0.474 ± 0.051.
